In the supplement of paper PMC11417369:
The other results are listed elsewhere or left out.

Tested on: PfHDP1 homeodomain (GST-tagged)
Assay: gcPBM binding intensity (ln(normalized median fluorescence intensity)); higher = stronger DNA binding
Method in brief: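 An Agilent 4 × 180k array carrying primer-extended double-stranded 36-bp intergenic genomic probes and negative controls received GST-tagged P. falciparum DNA-binding domains expressed in E. coli, about 25 μg on average, for 1 h. The binding buffer contained 1× PBS, 1% milk, 0.2 mg/ml BSA, 0.5% salmon testes DNA and 0.03% Triton X-100. Binding intensity is the top Masliner-normalised natural-log median intensity across replicate spots of either probe orientation, read after Alexa488 anti-GST antibody staining and a 488 nm scan.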

Sequence | gcPBM binding intensity (ln)
ATATTTTTATATTAGTGTACTTATTATAATGTATAG [XGTACX_site8185] | 6.33
ATATAATATATATGGTGTACATTTTTTAGTGCTATT [XGTACX_site1662] | 6.9
TATATATATATTTATACACACATTAGTGTAGACATG [CACACA_site8964] | 8.51
TCCTTATAAATATATATATAATATATATATATATAT [CACACA_negctrl_site293] | 8.74
TTGTTCTAATATATTGCACACGTAAAAATATAGGTA [CACACA_site8195] | 10.1
AAGTATGCATTATATACACACATACATTTATATATT [CACACA_site4242] | 6.78
TTGGTTATACAACACATGCACACGTAAATAAATATT [CACACA_site3841] | 9.06
TATATATAAAGAGAAACATGCAAAATGTGAATATTC [TGCATGCA_site377] | 7.26
ATTATGTTAAAAAGGCGTACATGTTATAAGGTCCTA [XGTACX_site344] | 6.5
AACCATTAATTCTCTACACACTTTTATTTTATTTAG [CACACA_site1769] | 6.55
ACTTTATATTTTGAACGTACAAAAAAAAAATTATGT [XGTACX_site5588] | 6.55
GCACATATATACATACATACATACATACATATGTAT [TGCATGCA_negctrl_site95] | 6.92
TTATATATTTTTACCATACACACATATAATAAATAT [CACACA_site3721] | 6.9
ATAAAGATTTTCCAAGCATGCCACATAGTGAGATAC [TGCATGCA_site594] | 6.84
ATCATAAAAGTATACACACATACATACATATGTACA [CACACA_site2641] | 6.83
TATATATATATTATATGTACATATTCCTATATATAC [XGTACX_site7071] | 8.62
TAAATATATATATATGTACACACTCCAATACATATA [CACACA_site8858] | 6.7
TTATATGCATAAAAAGGTACACATATATAAATAAAT [XGTACX_site6894] | 6.68
AACAACCAAACGCACACACACAAAAAAAAAAATATA [CACACA_site6326] | 7.51
TTTGTGTAGGTGTGTAGTACATATAACTTATAACAT [XGTACX_site7885] | 7.04
TAATAAAATGTACACGCATGCAATAGAATATAAAGT [TGCATGCA_site905] | 8.24
ACATTTAAAATTTATGCATGTGGTGTTTTGTATATA [TGCATGCA_site534] | 6.81
TATATTCATAATATTACACACGTTCATTTATTTTAA [CACACA_site2031] | 6.67

Sequence | gcPBM binding intensity (ln)
TATGGTTTTAAAAAATGTACGCAAGTGCGTTAATTT [XGTACX_site3945] | 7.62
GAGTGAAATATGCAAACACACACGAGAAAAATGTAT [CACACA_site3196] | 7.15
TAATAAATAAAAATAGAACACACATATGTTTTTTTT [CACACA_site9185] | 6.17
CAGTAGTATATACTATGTACATATTTATATTATATT [XGTACX_site4964] | 6.52
AATATAAATAAACACACACACATATATATATATATT [CACACA_site2906] | 6.78
AAAAAAAAAAAAAAATGTACATATATATAAATAAAA [XGTACX_site5574] | 6.44
ATATTTATATATTGCACACAAAAAAAAAAAAAAATC [CACACA_site1629] | 10.4
TATATATATATGTAATGTACATAAATTTTATACCTT [XGTACX_site6991] | 9.06
TATACAGATGGACACACACACATATATATATATATA [CACACA_site5272] | 9.36
TTATAATTGTAAGGTAGTACATATAAATCAAATAAT [XGTACX_site7190] | 6.57
ATGAATCTTTTAAAAAGTACATGTGAAAAAAATAAA [XGTACX_site49] | 6.62
ATACAAACAATTATTTGTACATAAAATTTTTTTTTT [XGTACX_site90] | 6.21
TTAAAATGTTGTAACGTGCACATTTTGTGGAAATCA [GTGCAC_site9559] | 9.65
ATTTATTTCTTGTTAGTGCACTTTCTTTGGTAAAAT | 10.9
AAATTTATAAAGAACACACACATATAAATATAAATA [CACACA_site6174] | 6.93
TTATATATTTATATATGTACACATTTTACCATTTTT [XGTACX_site2142] | 6.22
TTTTTTTGTTAAAAGGTGCTAATATATATAAGTGCT | 6.62
GTCCCTATAAGGGGAACACACATAAATGAATATATA [CACACA_site1024] | 6.16
TTTCTATATAGATTTGCACACATAAAAATGCTTATA [CACACA_site2390] | 10.2
CTTTATACATGACATAGTACCCATTTTAGATTTGAA [XGTACX_site5240] | 6.54
AAGGGAAAAATATGGTTGCACTAAAAATATGTAATT [GTGCAC_site9605] | 8.11
AAACAAATAGACACTTGTACGTAAGTAAATAATTAA [XGTACX_site6157] | 6.37
